Measurements published in PubChem BioAssay AID624418 (National Center for Advancing Translational Sciences (NCATS), 2012).
Hit rate of the full screen: of about 410,000 compounds, about 530 (0.13%) were called active. This list was built around the results that the source calls inconclusive (neither active nor inactive); the mix of calls is not that of the screen. Calls come from the whole dose curve; as a rule, active = well fitted inhibition curve with a large enough effect; inconclusive = small, poorly fitted or top-dose-only effect, or another doubt; inactive = no such curve, though single readings can be large or run the other way. Potencies of inconclusive entries are doubtful fits and often do not repeat.

Experiment: qHTS of GLP-1 Receptor Inverse Agonists: Cytotox Screen
Details: HEK293 cAMP-luciferase reporter cells, luminescence, 24 h; activity change, negative = inhibition: at 38.3 µM (top of the series) unless noted
How it was run: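 Luminescence readout: signal drop marks cytotoxicity. Plated cells grew 12 h at 37 °C, 5% CO2, received 23 nL compound for 24 h, then got luciferase reagent, read after 12 min at RT.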
% is set by controls: 0 for no effect and ±100 for the full control effect; potency is the fitted concentration of half-maximal effect.

SMILES	activity change, negative = inhibition	Potency
Cc1cc(Cl)ccc1NNC(=O)CCc1ccccc1	inactive: 8.85%	–
O=C(Nc1nc2ccc(S(=O)(=O)N3CCCC3)cc2s1)C1CCCCC1	–	inconclusive: 3.98 µM [inhibitor, full curve]
CCc1ccc(CN(Cc2ccco2)c2cnc(S(C)(=O)=O)nc2C(=O)Nc2ccccc2Cl)cc1	inactive: 16.4%	–
CCn1ncc(/C=N\NC(=O)c2csc3ccccc23)c1C	–	inconclusive: 12.6 µM [inhibitor, partial curve]
CN(CC(=O)N1CCc2ccccc2C1)c1ccccc1	inactive: 3.1%	–
Cc1ccc2nc(/C(C#N)=C\c3ccc(N4CCCCC4)c([N+](=O)[O-])c3)[nH]c2c1	–	inconclusive: 3.55 µM [inhibitor, single point]
Fc1ccc(Nc2c3c(nc4ccccc24)CCC3)cc1	–	inactive
Nc1c(C(=O)Nc2ccc3c(c2)OCCO3)nnn1Cc1cccc(Br)c1	–	inconclusive: 28.2 µM [inhibitor, single point]
COc1cc(C)ccc1NC(=O)Cc1csc(NC(=O)Nc2ccccc2OC)n1	–	inconclusive: 22.4 µM [inhibitor, single point]
O=C(CC12CC3CC(CC(C3)C1)C2)NC(=S)NCc1ccco1	–	inconclusive: 28.2 µM [inhibitor, single point]
C=C(C)C(=O)OCC(O)COc1ccc(C(C)(C)c2ccc(OCC(O)COC(=O)C(=C)C)cc2)cc1 (centres undefined)	inactive: 7.25%	–
CC(CC(=O)Nc1ncc([N+](=O)[O-])s1)c1ccccc1 (centres undefined)	–	inconclusive: 4.47 µM [inhibitor, partial curve]
Cc1cccc2cc(CN(Cc3ccco3)S(=O)(=O)c3ccc4c(c3)OCCO4)c(=O)[nH]c12	–	inconclusive: 22.4 µM [inhibitor, single point]
COc1ccc(CCNc2nc(-c3sc(C)nc3C)cs2)cc1OC	–	inconclusive: 11.2 µM [inhibitor, single point]
COc1ccc(NC(=O)CCn2c(=O)c3cccn3c3cccnc32)c(OC)c1	inactive: 0.0548%	–
CS(=O)(=O)c1cccc(C(=O)Nc2nnc(C3=COCCO3)o2)c1	inactive: 17.4%	–
COc1ccccc1OC(C)C(=O)Nc1ccc(-c2nc3ccccc3s2)cc1 (centres undefined)	inactive: -2.19%	–
CC1=CC(C)(C)N2C(=O)C(=O)c3cc(OC(=O)c4ccco4)cc1c32	–	inconclusive: 8.91 µM [inhibitor, partial curve, poor fit]
c1ccc(Nc2c(-c3c[nH]c4ccccc34)nc3ccccn23)cc1	inactive: -10.3%	–
O=C1C(=O)c2c(C(=O)c3ccccc3)coc2-c2ccccc21	–	inconclusive: 15.8 µM [inhibitor, single point]
COc1ccc(/C=N/NC(=O)c2ccc(N(C)S(=O)(=O)c3ccccc3)cc2)c(OC)c1	inactive: -9.01%	–
Cc1ccc(C)c(NC(=S)NNc2ccc(F)cc2F)c1	–	inconclusive: 7.08 µM [inhibitor, partial curve, poor fit]

SMILES	activity change, negative = inhibition	Potency
Cc1ccc(/C=N/NC(=O)c2cc(C3CC3)nc3ccccc23)o1	–	inconclusive: 28.2 µM [inhibitor, single point]
O=C(CC(c1ccccc1)c1ccccc1)Nc1ccc(Cl)cn1	–	inconclusive: 7.94 µM [inhibitor, partial curve, poor fit]
OC[C@H]1O[C@@H](n2cnc3c(NCc4ccco4)ncnc32)[C@H](O)[C@@H]1O	–	inconclusive: 6.31 µM [inhibitor, partial curve, poor fit]
N#CC1=C(S)N=C(N)C(c2nc(-c3ccccc3)cs2)C12CCCCC2 (centres undefined)	inactive: -2.71%	–
CCCCC[C@@H]1C=C(C(=O)O)[C@H](c2ccc(OC)c(OC)c2)N1S(=O)(=O)c1ccc(C)cc1	inactive: 2.56%	–
Cc1ccc(/C=N/n2c(-c3ccc(Cl)cc3)n[nH]c2=S)o1	–	inconclusive: 5.62 µM [inhibitor, partial curve]
Cc1ccc(CCNC(=O)CC(C)CC2=NS(=O)(=O)c3ccccc3N2)cc1 (centres undefined)	inactive: 1.29%	–
CCOP(=O)(c1ccccc1)c1nc(-c2ccccc2C)oc1N1CCCCC1 (centres undefined)	inactive: -12.6%	–
CCN(CC)CCCNC(=O)c1ccc(S(=O)(=O)Nc2ccc(C)c(C)c2)cc1	inactive: 13.6%	–
Cc1ccccc1-c1noc(-c2ccc(O)cc2)n1	–	inconclusive: 6.31 µM [inhibitor, partial curve, poor fit]
CC(=O)Nc1cc(-c2ccccc2CN(C)C)cn2c(-c3ccc(C(C)=O)cc3)cnc12	–	inconclusive: 31.6 µM [inhibitor, single point]
Cc1cc2ccccc2n1-c1ccc(C(=O)N2CCC(C(=O)NCc3ccc(Cl)cc3)CC2)s1	inactive: -9.76%	–
Cc1[nH]nc(-c2ccc(O)c(C)c2O)c1Oc1ccccc1	–	inconclusive: 20 µM [inhibitor, single point]
CC(=O)c1sc(NC(=O)C2(F)C(F)(F)C(F)(F)C(F)(F)C(F)(F)C2(F)F)nc1C	–	inconclusive: 5.62 µM [inhibitor, full curve, poor fit]
COc1ccc2cc(CN(Cc3cccs3)Cc3nnnn3Cc3ccccc3)c(=O)[nH]c2c1	–	inconclusive: 3.98 µM [inhibitor, partial curve]
S=C(NNc1ccc2ccccc2c1)NC1CCCCC1	–	inconclusive: 28.2 µM [inhibitor, single point]
CCOC(=O)N1CCN(C(=O)c2ccc3c(c2)sc2nc(-c4ccccc4)cn23)CC1	inactive: 4.82%	–
CCCN1C(=O)CN(C2CCCCCC2)C(=O)C1c1ccc(C)cc1 (centres undefined)	–	inconclusive: 5.01 µM [inhibitor, partial curve, poor fit]
O=C(CN(C(=O)C1CSC(=O)C1)c1ccccc1F)NCc1ccc2c(c1)OCO2 (centres undefined)	–	inconclusive: 2.24 µM [inhibitor, full curve]
Cc1nn(Cc2ccccc2)c(C)c1NC(=O)CSc1n[nH]c(C)c1[N+](=O)[O-]	–	inconclusive: 22.4 µM [inhibitor, single point]
CCOC(=O)Cc1csc(NC(=O)CSc2nc(N)c3c(C)c(C)sc3n2)n1	–	inconclusive: 12.6 µM [inhibitor, single point]
O=C1NC(Nc2nc3ccccc3s2)(C(F)(F)F)C(=O)N1C1CCCCC1 (centres undefined)	–	inconclusive: 14.1 µM [inhibitor, single point]
